± gives the uncertainty stated by the source. In all, about 9,900 compounds were measured (“viability index relative to DMSO control”: median about 1, lowest 2% from about 0.85 on). The list shows a part of the results.

This assay deals with Plasmodium falciparum NF54 stage V gametocytes. The experiment in a line: viability index relative to DMSO control (fraction); higher = less gametocyte killing. To be noted: 2.5 µM, library set: Broad Institute DOS, incubation time: 72 h. A digest of the protocol: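 Stage V gametocytes of P. falciparum NF54 were held in serum-free screening medium at 0.75% gametocytemia and 1.25% hematocrit, 10 µl per well of a 1,536-well plate, and exposed to compound at 2.5 µM for 72 hr at 37°C under low oxygen. A 3 µl mix of 2.5 µM MitoTracker Red CMXRos with 0.13% saponin was then added for one to two hours, after which one field per well was imaged and red particles of 20–70 µm2 were counted. The viability index equals this count divided by the plate mean from wells given solvent alone.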
Compound `COCC(=O)N1[C@H](C(=O)NCc2ccccc2)[C@@H](CO)[C@@H]2Cn3c(cccc3=O)[C@@H]21` gave a viability index of 1.02 ± 0.029.

As to `O=C(C[C@H]1CC[C@@H]2[C@H](COC[C@H](O)CN2S(=O)(=O)c2cccc(Cl)c2)O1)N1CCOCC1`, the viability index worked out at 1.06 ± 0.036.

On to `COc1ccc(S(=O)(=O)Nc2cccc3c2O[C@@H](CN(C)CC2CCCCC2)[C@@H](C)CN([C@H](C)CO)C3=O)cc1`, for which the viability index came to 0.955 ± 0.087.

Compound `O=C(NC1CCCCC1)N1CC2(C1)[C@H](c1ccccc1)[C@H](CO)N2S(=O)(=O)Cc1ccccc1` displayed a viability index of 1.03 ± 0.013.

Consider `COc1ccc2c3c([nH]c2c1)[C@H](CO)N(CC1CC1)C[C@]31CN(C1)C(=O)NC1CCCC1`, for which the viability index stood at 0.964 ± 0.041.

Consider `C[C@@H]1CN([C@H](C)CO)C(=O)CCCn2nncc2CO[C@H]1CN(C)Cc1cccc2c1OCCCO2`, for which the viability index stood at 1.07 ± 0.038.

In turn, `COc1ccc2c3c([nH]c2c1)[C@H](CO)N(C)C[C@]31CCN(CC1)C(=O)c1ccccn1` returned a viability index of 0.898 ± 0.089.

For the compound `CN(C[C@H]1[C@@H](c2ccccc2)[C@@H](CO)N1C(=O)C1CCC1)C(=O)c1ccncc1`, the viability index amounted to 1.07 ± 0.026.

Consider `COc1ccc(-c2ccccc2[C@@H]2[C@H](C#N)N(C(=O)C3CCC3)[C@H]2CO)cc1`, for which the viability index was 1.16 ± 0.12.

In the case of `N#C[C@H]1[C@H](c2ccccc2-c2ccccc2F)[C@H](CO)N1C(=O)c1ccccn1`, the viability index is 1.1 ± 0.063.

As to `C[C@@H]1CN([C@@H](C)CO)C(=O)c2cc(NC(=O)Nc3ccc4c(c3)OCO4)ccc2O[C@@H](C)CCCCO[C@H]1CN(C)C(=O)CCCN(C)C`, the viability index came out at 1.04 ± 0.0094.

Consider `C[C@H]1CN([C@@H](C)CO)C(=O)CCCn2cc(nn2)CO[C@H]1CN(C)C(=O)NC1CCCCC1`, for which the viability index was determined as 1.06 ± 0.015.

In turn, `C[C@H](CO)N1C[C@H](C)[C@H](CN(C)C(=O)Nc2ccc3c(c2)OCO3)Oc2ccc(NC(=O)Cn3cnnn3)cc2C1=O` displayed a viability index of 0.979 ± 0.019.

In turn, `O=C(Nc1ccc(C(F)(F)F)cc1)Nc1ccc2c(c1)[C@H]1C[C@H](CC(=O)N3CCc4ccccc4C3)O[C@H](CO)[C@H]1O2` came in with a viability index of 1.03 ± 0.018.

As to `O=C(C[C@H]1CC[C@H]2[C@@H](COC[C@@H](O)CN2S(=O)(=O)c2cccc(Cl)c2)O1)NC1Cc2ccccc2C1`, the viability index is 1 ± 0.054.

In turn, `N#C[C@@H]1[C@H](c2ccccc2-c2cccc(F)c2)[C@H](CO)N1C(=O)Nc1cc(F)ccc1F` gave a viability index of 1.06 ± 0.082.

In the case of `C[C@H]1CN([C@@H](C)CO)C(=O)c2c(c3ccccc3n2C)-c2ccccc2CO[C@H]1CN(C)C`, the viability index is 1.04 ± 0.052.

With `COc1ccc2c3c([C@@H](CO)N(C[C@]33CN(C3)C(=O)c3cccnc3)C(=O)Nc3ccc(F)cc3)n(C)c2c1`, the viability index was found to be 0.969 ± 0.06.

Consider `COc1ccc([C@H]2C/C=C\C[C@H](c3cccc(Cl)c3)NC(=O)[C@@H](c3ccccc3)CC(=O)N2)c(OC)c1`, for which the viability index turned out to be 0.978 ± 0.039.

`C[C@@H]1CN([C@H](C)CO)C(=O)CCCn2nncc2CO[C@H]1CN(C)S(=O)(=O)c1ccccc1C#N` came in with a viability index of 1.02 ± 0.032.

In the case of `C/C=C/c1cnc2c(c1)C(=O)N([C@@H](C)CO)C[C@H](C)[C@H](CN(C)CC1CCOCC1)O2`, the viability index came out at 1.04 ± 0.048.

The compound `COc1ccc(S(=O)(=O)Nc2ccc3c(c2)C(=O)N([C@H](C)CO)C[C@H](C)[C@@H](CN(C)C(=O)Nc2c(C)noc2C)OCCCC[C@H](C)O3)cc1` displayed a viability index of 1.06 ± 0.14.

The compound `Cc1noc(C)c1S(=O)(=O)Nc1ccc2c(c1)C(=O)N([C@@H](C)CO)C[C@@H](C)[C@@H](CN(C)C(=O)Nc1cccc3ccccc13)OCCCC[C@@H](C)O2` had a viability index of 0.893 ± 0.066.

As to `CN(C)C(=O)C[C@H]1C=C[C@H](NC(=O)c2ccc(F)cc2)[C@H](CO)O1`, the viability index came to 1.12 ± 0.071.

For the compound `C[C@H]1CN([C@@H](C)CO)C(=O)c2cc(C3=CCCCC3)cnc2O[C@H]1CN(C)S(=O)(=O)c1cn(C)cn1`, the viability index was found to be 0.995 ± 0.016.

`O=S(=O)(c1ccc(F)cc1)N1C[C@H]2[C@@H](c3ccccc31)[C@H](CO)N2Cc1ccccc1Cl` came in with a viability index of 1.02 ± 0.042.

`CN(C)CC(=O)N1[C@@H](C#N)[C@H](c2ccccc2-c2ccccc2F)[C@@H]1CO` showed a viability index of 1.06 ± 0.082.

For `C[C@@H]1CN([C@H](C)CO)C(=O)CCCn2nncc2CO[C@@H]1CN(C)Cc1ccc(C(=O)Nc2ccccc2N)cc1`, the viability index was 1.049 ± 0.0049.

Turning to `C/C=C/c1ccc([C@H]2[C@@H](CO)N(CCC)[C@H]2CNC(=O)CN2CCOCC2)cc1`, the viability index is 1.02 ± 0.047.

The compound `C[C@@H]1CN([C@H](C)CO)C(=O)CCCn2nncc2CO[C@H]1CN(C)Cc1ccccc1C(=O)O` returned a viability index of 1.03 ± 0.016.

`C[C@H](CO)N1C[C@H](C)[C@@H](CN(C)C(=O)c2ccc(N3CCN(C)CC3)cc2)OCc2cn(nn2)CCCC1=O` came in with a viability index of 0.954 ± 0.032.

In turn, `C[C@H](CO)N1C[C@H](C)[C@@H](CN(C)C(=O)c2cnccn2)Oc2cc(C#CCC3CCCC3)ccc2S1(=O)=O` returned a viability index of 1.05 ± 0.018.

In turn, `COc1ccc(C#Cc2ccc3c(c2)[C@H]2[C@H](CCN2Cc2nccs2)[C@H](CO)N3)cc1` gave a viability index of 1.05 ± 0.021.

As for `COc1cccc(-c2ccc([C@@H]3[C@@H](CO)N4C(=O)CNC[C@H]34)cc2)c1`, the viability index stood at 1.048 ± 0.0012.

Compound `CO[C@H]1CN(C)C(=O)c2cc(NS(=O)(=O)c3cccc(Cl)c3)ccc2OC[C@@H](C)NC[C@@H]1C` had a viability index of 1.06 ± 0.052.

The compound `COc1ccc([C@@H]2C/C=C\C[C@@H](c3ccc4c(c3)OCO4)NC(=O)CCC(=O)N2)c(OC)c1` showed a viability index of 0.981 ± 0.06.

Regarding `CO[C@H](CN(C)Cc1ccc2c(c1)OCO2)[C@H](C)CN(C(=O)Nc1ccc(F)cc1)[C@@H](C)CO`, the viability index turned out to be 1.03 ± 0.0043.

`N#C[C@@H]1[C@@H](c2ccccc2)[C@H](CO)N1S(=O)(=O)c1cccc(F)c1` showed a viability index of 1.04 ± 0.056.

`C[C@@H]1CCCCO[C@@H](CN(C)S(=O)(=O)c2ccccc2)[C@H](C)CN([C@H](C)CO)C(=O)c2cc(NC(=O)Nc3ccc4c(c3)OCO4)ccc2O1` came in with a viability index of 1.06 ± 0.06.

For the compound `CO[C@H](CN(C)Cc1ccc(-c2ccccn2)cc1)[C@@H](C)CN(C(=O)Nc1ccc(F)cc1)[C@H](C)CO`, the viability index came to 1.01 ± 0.061.

The compound `COCC(=O)N(C)C[C@H]1[C@H](c2ccccc2)[C@H](CO)N1C(=O)Cc1ccncc1` yielded a viability index of 1.02 ± 0.04.

As for `CO[C@H]1CC[C@@H]2CCN(C)C(=O)[C@@H](C)N(C)C(=O)c3cccc(C#N)c3OC[C@@H]1O2`, the viability index came to 1.02 ± 0.032.

The compound `C/C=C/c1cnc2c(c1)C(=O)N([C@H](C)CO)C[C@H](C)[C@H](CN(C)CC1CCOCC1)O2` had a viability index of 1.01 ± 0.066.

With `Cc1noc(C)c1NC(=O)Nc1cccc2c1O[C@@H](CN(C)Cc1ccc(C(=O)Nc3ccccc3N)cc1)[C@H](C)CN([C@@H](C)CO)C2=O`, the viability index is 0.9218 ± 0.005.

As for `CO[C@H]1CN(C)C(=O)c2cc(NC(C)=O)ccc2OC[C@@H](C)N(Cc2ccncc2)C[C@H]1C`, the viability index was determined as 1.07 ± 0.051.

In turn, `O=C(C[C@H]1CC[C@@H]2[C@H](COC[C@@H](O)CN2C(=O)Nc2ccc(F)cc2)O1)NC1CCC1` yielded a viability index of 0.976 ± 0.016.

Compound `CCN1Cc2cc(C(=O)Nc3nccs3)nc(-c3cccc(C4=CCCC4)c3)c2[C@H]1CCO` showed a viability index of 1.09 ± 0.019.

`COc1ccccc1-c1ccccc1[C@@H]1[C@@H](C#N)N(C(=O)CN(C)C)[C@@H]1CO` displayed a viability index of 1.09 ± 0.053.

For the compound `CC(C)[C@@H]1C(=O)N[C@@H](c2cccc(Cl)c2)C/C=C/C[C@H](C)Oc2ccccc2C(=O)N1C.CC(C)[C@@H]1C(=O)N[C@@H](c2cccc(Cl)c2)C/C=C\C[C@H](C)Oc2ccccc2C(=O)N1C`, the viability index worked out at 1.02 ± 0.022.

`C[C@@H]1CN([C@H](C)CO)C(=O)c2ccccc2-c2ccccc2CO[C@H]1CN(C)C(=O)Nc1ccnc(N2CCOCC2)c1` came in with a viability index of 0.943 ± 0.095.

`COc1cccc(NC(=O)N2[C@@H]3CNC[C@H]2[C@H]3c2ccc(-c3ccncc3)cc2)c1` had a viability index of 1.08 ± 0.036.

On to `O=C(c1cccnc1)N1CC[C@@H]2[C@H](CO)Nc3ccc(C4=CCCCC4)cc3[C@@H]21`, for which the viability index was 1.09 ± 0.082.

The compound `CCC(=O)N1[C@H](CO)[C@H](c2ccccc2)C12CN(C(=O)c1ccc3c(c1)OCO3)C2` displayed a viability index of 1.12 ± 0.048.

With `C/C=C/c1ccccc1[C@@H]1[C@H](C#N)N(c2nc(CC)cs2)[C@H]1CO`, the viability index was determined as 1.12 ± 0.025.

Take `COc1ccc2c3c([nH]c2c1)[C@H](CO)N(C[C@]31CCN(CC1)C(=O)c1ccccc1)C(=O)CC1CC1`: the viability index was 1 ± 0.016.

As to `N#C[C@@H]1[C@H](c2ccccc2-c2cccc(F)c2)[C@H](CO)N1C(=O)NC1CCCCC1`, the viability index is 1.07 ± 0.079.

For `CO[C@@H]1CN(C)C(=O)c2ccc(NC(C)=O)cc2OC[C@@H](C)N(Cc2cccc(F)c2)C[C@@H]1C`, the viability index came to 0.998 ± 0.057.

In the case of `COCC#Cc1ccc([C@H]2[C@H](CO)N3C(=O)CN(C(=O)c4ccncc4)C[C@@H]23)cc1`, the viability index is 1.06 ± 0.03.

`O=C(NC1CCCC1)N1CCCCN2[C@H](CO)[C@H](c3ccc(-c4cccnc4)cc3)[C@@H]2C1` came in with a viability index of 1.08 ± 0.086.

Compound `CCCNC(=O)N1[C@H](CO)[C@@H](c2ccccc2)C12CN(C(=O)C1CCCCC1)C2` returned a viability index of 1.1 ± 0.015.

`CCCNC(=O)N1[C@@H]2Cn3c(cccc3=O)[C@H]1[C@@H](C(=O)N1CCC(Cc3ccccc3)CC1)[C@@H]2CO` registered a viability index of 1.05 ± 0.064.

Take `COc1ccc(-c2cn(CC[C@@H]3CC[C@H](NC(=O)c4cnccn4)[C@H](CO)O3)nn2)cc1`: the viability index was 1.14 ± 0.091.

`CO[C@@H]1CN(C)C(=O)c2cc(NC(C)=O)ccc2OC[C@@H](C)N(Cc2ccncc2)C[C@H]1C` came in with a viability index of 1.01 ± 0.075.

Compound `CCC(=O)Nc1ccc2c(c1)OC[C@@H](C)N(Cc1ccccc1)C[C@@H](C)[C@H](OC)CN(C)C2=O` displayed a viability index of 0.943 ± 0.18.

In turn, `C[C@H]1CCCCO[C@H](CN(C)C(=O)CCC(F)(F)F)[C@@H](C)CN([C@@H](C)CO)C(=O)c2cc(NC(=O)C3CCCCC3)ccc2O1` gave a viability index of 1.12 ± 0.078.

As to `C[C@@H]1CCCCO[C@@H](CN(C)Cc2ccc(C(F)(F)F)cc2)[C@H](C)CN([C@@H](C)CO)C(=O)c2cc(NC(=O)Nc3cccc4ccccc34)ccc2O1`, the viability index turned out to be 0.949 ± 0.16.

Compound `C/C=C/c1ccccc1[C@H]1[C@@H](C#N)N(C(=O)CN2CCOCC2)[C@H]1CO` displayed a viability index of 1.14 ± 0.092.

Compound `CS(=O)(=O)N1[C@H](C#N)[C@@H](c2ccc(C#Cc3cccc(F)c3)cc2)[C@H]1CO` returned a viability index of 1.131 ± 0.0054.

`CCCNC(=O)N1[C@H](CO)[C@@H](c2ccccc2-c2ccccc2F)[C@@H]1C#N` registered a viability index of 1.07 ± 0.13.

Compound `CO[C@@H]1CN(C)C(=O)c2ccc(NC(=O)Nc3ccccc3)cc2OC[C@H](C)N(C(=O)CC2CC2)C[C@H]1C` registered a viability index of 1.07 ± 0.092.

Source of the values: the supplement of paper PMC4723716.
